± gives the standard deviation of the averaged measurements.
Assay: total protein half-life in vivo (active degradation + dilution); higher = more stable protein
[1] = E. coli NCM3722 delta-clpP delta-lon delta-hslV, growth: N-lim chemostat, doubling time 6 h
[2] = E. coli NCM3722 delta-clpP, growth: N-lim chemostat, doubling time 6 h
[3] = E. coli NCM3722 delta-hslV, growth: N-lim chemostat, doubling time 6 h
[4] = E. coli NCM3722 delta-lon, growth: N-lim chemostat, doubling time 6 h
[5] = E. coli NCM3722 delta-smpB, growth: N-lim chemostat, doubling time 6 h
[6] = wild type E. coli NCM3722, growth: C-lim chemostat, doubling time 3 h
[7] = wild type E. coli NCM3722, growth: C-lim chemostat, doubling time 6 h
[8] = wild type E. coli NCM3722, growth: C-lim chemostat, doubling time 12 h
[9] = wild type E. coli NCM3722, growth: N-lim chemostat, doubling time 6 h
[10] = wild type E. coli NCM3722, growth: N-lim chemostat, doubling time 12 h
[11] = wild type E. coli NCM3722, growth: P-lim chemostat, doubling time 6 h
[12] = wild type E. coli NCM3722, growth: P-lim chemostat, doubling time 12 h

Sequence | total protein half-life in vivo [1] [h] | total protein half-life in vivo [2] [h] | total protein half-life in vivo [3] [h] | total protein half-life in vivo [4] [h] | total protein half-life in vivo [5] [h] | total protein half-life in vivo [6] [h] | total protein half-life in vivo [7] [h] | total protein half-life in vivo [8] [h] | total protein half-life in vivo [9] [h] | total protein half-life in vivo [10] [h] | total protein half-life in vivo [11] [h] | total protein half-life in vivo [12] [h]
MMENYKHTTVLLDEAVNGLNIRPDGIYIDGTFGRGGHSRLILSQLGEEGRLLAIDRDPQAIAVAKTIDDPRFSIIHGPFSALGEYVAERDLIGKIDGILLDLGVSSPQLDDAERGFSFMRDGPLDMRMDPTRGQSAAEWLQTAEEADIAWVLKTYGEERFAKRIARAIVERNREQPMTRTKELAEVVAAATPVKDKFKHPATRTFQAVRIWVNSELEEIEQALKSSLNVLAPGGRLSIISFHSLEDRIVKRFMRENSRGPQVPAGLPMTEEQLKKLGGRQLRALGKLMPGEEEVAENPRARSSVLRIAERTNA | 4.825 ± 0.021 | 5.08 ± 1.4 | 4.53 ± 0.21 | 5.15 ± 0.28 | 4.49 ± 0.4 | 3.25 ± 0.07 | 5.72 ± 0.67 | 9.675 ± 0.028 | 4.68 ± 0.47 | 7.5 ± 0.47 | 4.97 ± 0.17 | 10.4 ± 0.39
MQEQYRPEEIESKVQLHWDEKRTFEVTEDESKEKYYCLSMLPYPSGRLHMGHVRNYTIGDVIARYQRMLGKNVLQPIGWDAFGLPAEGAAVKNNTAPAPWTYDNIAYMKNQLKMLGFGYDWSRELATCTPEYYRWEQKFFTELYKKGLVYKKTSAVNWCPNDQTVLANEQVIDGCCWRCDTKVERKEIPQWFIKITAYADELLNDLDKLDHWPDTVKTMQRNWIGRSEGVEITFNVNDYDNTLTVYTTRPDTFMGCTYLAVAAGHPLAQKAAENNPELAAFIDECRNTKVAEAEMATMEKKGVDTGFKAVHPLTGEEIPVWAANFVLMEYGTGAVMAVPGHDQRDYEFASKYGLNIKPVILAADGSEPDLSQQALTEKGVLFNSGEFNGLDHEAAFNAIADKLTAMGVGERKVNYRLRDWGVSRQRYWGAPIPMVTLEDGTVMPTPDDQLPVILPEDVVMDGITSPIKADPEWAKTTVNGMPALRETDTFDTFMESSWYYARYTCPQYKEGMLDSEAANYWLPVDIYIGGIEHAIMHLLYFRFFHKLMRDAGMVNSDEPAKQLLCQGMVLADAFYYVGENGERNWVSPVDAIVERDEKGRIVKAKDAAGHELVYTGMSKMSKSKNNGIDPQVMVERYGADTVRLFMMFASPADMTLEWQESGVEGANRFLKRVWKLVYEHTAKGDVAALNVDALTENQKALRRDVHKTIAKVTDDIGRRQTFNTAIAAIMELMNKLAKAPTDGEQDRALMQEALLAVVRMLNPFTPHICFTLWQELKGEGDIDNAPWPVADEKAMVEDSTLVVVQVNGKVRAKITVPVDATEEQVRERAGQEHLVAKYLDGVTVRKVIYVPGKLLNLVVG | 5.24 ± 0.23 | 4.9 ± 0.34 | 4.9 ± 0.43 | 5.36 ± 0.62 | 4.58 ± 0.11 | 3.15 ± 0.27 | 5.5667 ± 0.0052 | 11 ± 0.44 | 4.4 ± 0.07 | 7.83 ± 0.26 | 6.158 ± 0.0094 | 11.2 ± 0.63
